Reference: PubChem BioAssay AID1508624 (National Center for Advancing Translational Sciences (NCATS), 2021)
Out of some 48,000 compounds screened, about 120 (0.25%) were called active. Not shown: some 4% with an inconclusive outcome. Calls come from the whole dose curve; as a rule, active = well fitted activation curve with a large enough effect; inconclusive = small, poorly fitted or top-dose-only effect, or another doubt; inactive = no such curve, though single readings can be large or run the other way. The list shows a part of the results.

Assay: Primary qHTS for Identification of Small Molecule Activators of Huntingtin-Antisense Promoter Activity; note: nearly all actives have a fitted effect of over 55% in size
Settings: HEK293 HTT-AS promoter firefly luciferase reporter (activity 0% = vehicle and -100% = no light), 24 h; series mostly up to 57.5 µM; activity change, positive = activation: at the top concentration
How it was run: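 HEK293 Fluc reporter, 2,500 cells/well, 24 h pre-culture; cpds up to 57.5 uM final, 24 h 37 degrees C; Dual-Glo, 10 min RT; normalized vehicle = 0%, zero RLU = -100%.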

Activity change, positive = activation, inactive:
CCc1ccccc1NC(=O)N1CCC2(CC1)Oc1ccccc1C(=O)N2Cc1ccccc1F -3.88%
COc1ccc(CCN2C(=O)N(c3ccc(F)cc3)C(=O)C2CC(=O)Nc2ccc(OC)cc2)cc1 (stereo unspecified) -29.6%
CC(=O)Nc1ccc(NS(=O)(=O)c2ccc3[nH]c4c(c3c2)CCCCC4)cc1 -33.2%
CCOc1ccc(C(=O)NCC(c2ccc3c(c2)OCO3)N2CCN(c3ccc(F)cc3)CC2)cc1 (stereo unspecified) -26.6%
CCCCC1C(=O)N(c2ccccc2)N(c2ccccc2)C1=O -17.3%
Cc1ccc(-n2nc3c(N4CCC(C(=O)NCCc5ccccc5C)CC4)nnc(C)c3c2C)cc1 -40.2%
O=C(NCCCc1nc2ccccc2n1Cc1ccccc1)C1CCCCC1 -22.1%
Cc1ccccc1OCc1ccc(-c2nc(C#N)c(N3CCN(c4ccccc4)CC3)o2)o1 -16.1%
N#CC1(c2ccc(F)cc2)CCC(=O)CC1 0.619%
COc1cccc(Cn2c(C)c(CNCc3ccccc3Cl)c(C(=O)O)c2C)c1 -13.9%
CCOc1ccc(CNC(=O)c2ccc(NC(=O)N3CCSc4ncccc43)cc2)cc1OC -9.48%
CN(C)c1cc2c(cc1NC(=O)c1ccc(F)cc1)n(C)c(=O)n2C -20.4%
CCc1ccc(-c2cc(C)no2)cc1S(=O)(=O)Nc1ccc(C)cn1 -31.2%
Cc1cccc(-c2nnn3c2nc(NCc2ccccc2)c2ccccc23)c1 28.7%
CC(C)CCNC(=O)C1CCN(S(=O)(=O)c2cccc3nsnc23)CC1 -9.23%
CNC(=O)C1CCN(Cc2cc3ccccc3n2Cc2cccc(C)c2)CC1 -25.1%
CCOC(=O)c1cnc2ccc(C(=O)OC)cc2c1Nc1ccc(N2CCOCC2)cc1 -48%
COC(=O)c1ccc(Cn2c(SCC(=O)NCc3ccccc3)nc3ccccc32)cc1 -10.4%
CSCCC(NS(=O)(=O)c1cccs1)C(=O)Nc1ccc(C)c(Cl)c1 (stereo unspecified) -13.8%
CCOc1ccc(CCNC(=O)c2ccc(CS(=O)(=O)c3ccccc3C)o2)cc1OCC -39.7%
O=C(CO)[C@@H](O)[C@H](O)[C@@H](O)CO -4.56%
CCc1ccccc1Nc1ncnc2c1cnn2-c1ccc(Cl)cc1 -14.2%
COc1ccc(Cl)cc1NC(=O)c1ncn(-c2ccccc2)n1 18.5%
COc1ccc(OC)c(NC(=O)Cc2c(C)n(C(=O)c3ccc(Cl)cc3)c3ccc(OC)cc23)c1 -30.2%
CC(=O)c1cccc(NC(=O)CN2C(=O)c3cccnc3Sc3ccccc32)c1 12.6%
CCc1ccc(NC(=O)Cn2c(=O)n(-c3ccccc3)c(=O)c3ccc(C(=O)NCc4ccc5c(c4)OCO5)cc32)cc1 -32.3%
Cc1ccc(C)c(Cn2c(=O)n(Cc3ccco3)c(=O)c3oc4ccccc4c32)c1 -10.7%
COc1cc(CN(C(=O)c2ccc(OC(C)C)cc2)C2CCS(=O)(=O)C2)cc(OC)c1OC (stereo unspecified) -5.62%
CCN1CCOC(=O)C1CC(=O)Nc1ccc(C(C)=O)cc1 (stereo unspecified) -11.2%
CCCCOC(=O)c1ccc(O)cc1 27.9%
CCOC(=O)C1CCN(S(=O)(=O)c2ccc(N3CCCCS3(=O)=O)cc2)CC1 -8.68%
OCCC#Cc1nc(-c2ccc(F)cc2)c(-c2ccncc2)n1CCCc1ccccc1 -18.8%
CCn1c(SCc2ccc(F)cc2Cl)nc(=O)c2c(C(=O)OC)cc(C3CC3)nc21 -37.1%
CNCCCCOc1ccccc1Cc1ccccc1 -20.3%
Cc1ccc(CNC(=O)c2cc(-c3ccc(C)cc3)nc3n[nH]c(-c4ccc(F)cc4)c23)cc1 0%
CC(C)C1N=C2c3ccccc3N=C(SCC(=O)NCc3ccccc3Cl)N2C1=O (stereo unspecified) -4.17%
CCCn1c(=O)c2sccc2n2c(CCCC(=O)Nc3ccc(Oc4ccccc4)cc3)nnc12 -17.2%
COCCCOc1cc(C[C@@H](C[C@H](N)[C@@H](O)C[C@H](C(=O)NCC(C)(C)C(N)=O)C(C)C)C(C)C)ccc1OC
CCc1ccc(-n2nc(CO)c(C(=O)NCC(c3ccccc3)c3ccccc3)n2)cc1 -3.48%
Cc1ccc(N(Cc2cc3ccccc3[nH]c2=O)C(=O)c2cccc(Cl)c2)cc1 -42.3%
CCN(CC)CCCNC(=O)CSc1nc2nc(C)c(Cc3c(F)cccc3Cl)c(C)n2n1 -3.02%
COc1ccc(OCC2c3cc(OC)c(OC)cc3CCN2C(=O)COc2ccc(Cl)cc2Cl)cc1 (stereo unspecified) -13.6%
CC(C)c1ccc2occ(CC(=O)Nc3ccccc3Cl)c2c1 -13.6%
COc1ccc(Cn2ccc3nc(C)c(C(=O)N4CCN(c5ccccc5OC)CC4)cc3c2=O)cc1 -23.3%
CC(C)NC(=O)C(c1ccccc1)N1Cc2ccccc2C1=O (stereo unspecified) 1.94%
CC1=C(C(N)=O)C(c2cccc(C)c2)n2nc(-c3cccc(C)c3)nc2N1 (stereo unspecified) -11.6%
Cc1ccc(C)c(NC(=O)Cn2c(=O)n(Cc3ccc4c(c3)OCO4)c(=O)c3oc4ccccc4c32)c1 -3.55%
CCCc1nc2c(C)cc(-c3nc4ccccc4n3C)cc2n1Cc1ccc(-c2ccccc2C(=O)O)cc1
Cc1ccc(CSc2nnc(-n3c(=O)c(C#N)cc4c(=O)n5cc(C)ccc5nc43)s2)cc1 -13.5%
COc1ccc(-c2noc(CSc3nc(C)cc(=O)[nH]3)n2)cc1OC -31.1%
COc1cc(C(CC(=O)Nc2cc(C)ccc2C)N2Cc3ccccc3C2=O)cc(OC)c1OC (stereo unspecified) -18%
CC(=O)c1ccc(NC(c2ccc(F)cc2)c2nnc(-c3ccccc3)o2)cc1 (stereo unspecified) -17.4%
CC(C)(C)OC(=O)N1CCC(c2c(C(=O)N3CCN(c4ccccn4)CC3)cnn2-c2ccccc2Cl)CC1 -12.2%
CCOCCCNC(=O)c1cn(CC)c2ccc(S(=O)(=O)N3CCc4ccccc4C3)cc2c1=O -13.1%
Cc1ccc2nc(-c3ccncc3)c(Nc3ccc(C(C)C)cc3)n2c1 4.45%
CCOC(=O)c1[nH]c(C)c(CCC(=O)N2CCN(c3cccc(C)c3C)CC2)c1C -30.8%
CCc1ccc(Nc2sc(C(=O)c3ccccc3)c(N)c2S(C)(=O)=O)cc1 -25.4%
CCOCCc1nn2c(=O)cc(COC(=O)CNC(=O)c3ccc(F)cc3)nc2s1 -0.728%
CCOc1ccc(CC(=O)NCCc2csc(-c3ccc(Cl)cc3)n2)cc1 -26.4%
COc1ccc(OC)c(CNC(=O)c2c(C)oc3ncn(C)c(=O)c23)c1 -0.0819%
O=C(c1ccc2c(c1)CCN2S(=O)(=O)c1ccc(Cl)cc1)N1CCN(c2ccccc2)CC1 -4.78%
CCOc1ccc(CN2C(=O)c3ccccc3Sc3ccc(C(=O)OC)cc32)cc1 -43.7%
CC(=O)Nc1ccc(S(=O)(=O)NCc2cccn2Cc2cccc(C)c2)cc1 -15.8%
COc1ccc(N2CC(NC(=O)c3ccco3)CC2=O)cc1OC (stereo unspecified) -18%
O=C(NCc1ccc(F)cc1)C1CCN(c2ncnc3c2nc2n3CCCCC2)CC1 3.37%
COc1ccc(CNC(=O)c2ccc3c(c2)N(Cc2ccccc2C)C(=O)c2ccccc2S3=O)cc1 (stereo unspecified) -4.51%
COc1ccc(CNc2oc(/C=C/c3cccc(OC)c3)nc2C#N)cc1 0.37%
Cc1ccc(NC(=O)CSCc2cnn(-c3ccccc3)c2-n2cccc2)c(Cl)c1 -19.7%
CCc1ccccc1NC(=O)Cn1c(=O)n(-c2ccc(C)c(C)c2)c(=O)c2oc3ccccc3c21 -10.2%
COc1ccc(S(=O)(=O)NCCc2sc(-c3cccc(C)c3)nc2C)cc1 -19.1%
Cc1ccc(CCNC(=O)c2cccc(Nc3nc4ccccc4nc3-n3nc(C)cc3C)c2)cc1 -7.63%
COc1cc(Br)ccc1C1C(C(=O)Nc2ccc(C)cc2C)=C(C)Nc2nnnn21 (stereo unspecified) -26.6%
COc1ccc(CCNc2nc3ccccc3c3nc(-c4cccc(C)c4)nn23)cc1OC 29.9%
CCc1ccc(-n2nc(C)c3c(C(=O)N4CCN(c5cccc(Cl)c5)CC4)cc(C)nc32)cc1 -41.7%
Cc1nn(CC(=O)N2CCN(c3cccc(Cl)c3)CC2)c(=O)c2c1sc1ccccc12 3.4%
CCOC(=O)c1ccc(NC(=O)CCc2c(C)nc3c(c(C)nn3C(C)(C)C)c2C)cc1 -35.4%
CC(C)CCNC(=O)c1ccc(Cn2c(SCC(N)=O)nc3ccccc3c2=O)cc1 -10.3%
CCOc1cc(C(=O)OCc2cc(=O)n3nc(C4CC4)sc3n2)cc(OCC)c1OCC -10.7%
COc1cc(OC)c(NC(=O)NCc2cccn2Cc2ccccc2)cc1Cl -10.9%
CC(C)CCNC(=O)c1nn(C)c2c1CSc1ccccc1-2 13.8%
COC(=O)c1c(-c2cccs2)csc1NC(=O)c1cc(OC)c(OC)c(OC)c1 -10.8%
COc1ccc(-n2ccn(CC(=O)Nc3ccc(C)c(C)c3)c(=O)c2=O)cc1OC 2.51%
CCOc1cc2[nH]c(=O)n(CCCC(=O)NCc3ccc(OC)cc3)c(=O)c2cc1OCC -12.3%
CC1CCCN(S(=O)(=O)c2cc(C(=O)NCc3ccccc3Cl)n(C)c2)C1 (stereo unspecified) -30.9%
Cc1ccc(F)cc1NC(=O)CCSc1nc(-c2ccco2)cc(C(F)(F)F)n1 -14.8%
Cc1ccc(NC(=O)C(=O)NCC(c2cccnc2)N2CCc3ccccc3C2)cc1 (stereo unspecified) -22.7%
C=Cc1ccc(Cn2c(C(=O)O)c(CNCc3ccccc3)c3ccc(OC)cc32)cc1 -37.5%
CC1=CC(=O)c2ccccc2C1=O
CCN(C(=O)c1cc2cc(Br)cc(OC)c2oc1=O)c1ccccc1 -12.2%
O=C(NC1CCCCCC1)c1ccc(CS(=O)c2ccc(Br)cc2)o1 (stereo unspecified) -27.2%
COc1cccc(C2c3c(-c4ccccc4O)n[nH]c3C(=O)N2Cc2cccnc2)c1 (stereo unspecified) -21.8%
CCOc1ccc(CNC(=O)C2=Cc3cc(Br)ccc3OC2)cc1OC -19.8%
COc1ccccc1NC(=O)c1oc2ccccc2c1NC(=O)COc1ccccc1OC 22.9%
COc1ccc(Cl)cc1NC(=O)CSc1nc(=O)[nH]c2c1CCCC2 -10.5%
CCOc1ccc(NC(=O)Cn2cc(C(=O)c3ccccc3)c(=O)c3cc4c(cc32)OCO4)cc1 -29%
Cc1ccc(Cn2c(=O)n(-c3ccc(C)c(C)c3)c(=O)c3c(C)c(C)sc32)cc1 -20.3%
